Several values for one entry are separate records, joined by “and”; a condition that tells them apart may be missing. Equal entries are not always repeated. About 40 (0.2%) of roughly 16,000 compounds were called active. Inconclusive results (about 1%) are left out. Calls come from the whole dose curve; as a rule, active = well fitted activation curve with a large enough effect; inconclusive = small, poorly fitted or top-dose-only effect, or another doubt; inactive = no such curve, though single readings can be large or run the other way. This is one part of the list.
biological target: Rap guanine nucleotide exchange factor 4 (Homo sapiens) (UniProt Q8WZA2); assay: Validation qHTS for agonist of cAMP-regulated guanine nucleotide exchange factor 4 (EPAC2); settings: EPAC2 Rap1B BODIPY-GDP exchange, fluorescence; activation: hits give high values;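 note: exchange makes BODIPY-GDP fluorescence drop when released from Rap1B; series mostly up to about 150 µM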
Chain of UniProt Q8WZA2 (Q8WZA2 whole entry, looked up): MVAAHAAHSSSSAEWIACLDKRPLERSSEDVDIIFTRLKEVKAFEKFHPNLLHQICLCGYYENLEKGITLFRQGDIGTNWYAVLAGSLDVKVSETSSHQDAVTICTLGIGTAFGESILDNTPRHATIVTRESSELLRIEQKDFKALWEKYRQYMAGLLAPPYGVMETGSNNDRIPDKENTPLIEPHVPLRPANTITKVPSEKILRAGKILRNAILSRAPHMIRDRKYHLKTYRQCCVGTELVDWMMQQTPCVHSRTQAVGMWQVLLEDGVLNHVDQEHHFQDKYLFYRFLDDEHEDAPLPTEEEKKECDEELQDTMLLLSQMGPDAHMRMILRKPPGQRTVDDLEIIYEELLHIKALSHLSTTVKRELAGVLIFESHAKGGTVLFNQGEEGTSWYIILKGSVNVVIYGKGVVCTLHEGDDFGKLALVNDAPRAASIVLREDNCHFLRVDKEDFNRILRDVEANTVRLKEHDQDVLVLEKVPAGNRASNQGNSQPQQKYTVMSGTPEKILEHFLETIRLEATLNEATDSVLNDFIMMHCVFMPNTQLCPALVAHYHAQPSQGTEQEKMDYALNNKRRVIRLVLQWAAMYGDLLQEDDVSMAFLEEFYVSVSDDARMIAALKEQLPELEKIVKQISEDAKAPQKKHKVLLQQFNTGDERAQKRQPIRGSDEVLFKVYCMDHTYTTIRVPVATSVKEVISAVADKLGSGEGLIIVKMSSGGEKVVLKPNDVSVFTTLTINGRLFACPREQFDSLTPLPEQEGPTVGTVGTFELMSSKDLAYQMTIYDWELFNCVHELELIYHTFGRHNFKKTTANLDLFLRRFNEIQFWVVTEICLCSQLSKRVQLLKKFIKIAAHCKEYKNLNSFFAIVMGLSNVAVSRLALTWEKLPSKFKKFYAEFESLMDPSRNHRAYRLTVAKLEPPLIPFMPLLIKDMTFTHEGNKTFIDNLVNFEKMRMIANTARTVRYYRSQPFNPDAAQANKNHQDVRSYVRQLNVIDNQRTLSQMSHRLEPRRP
In short: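 Fluorescent exchange assay: 100 nM EPAC2 with 250 nM RAP1B-BODIPY-GDP and 50 uM GDP; compound added, 5 min at room temperature, then read (ex 480/em 540 nm) every 5 min for 30 min. Normalized to 6.5 mM cAMP agonist control.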
% is set by controls: 0 for no effect and ±100 for the full control effect.

activation, inactive:
COCCn1c(=O)c(-c2ccccc2)nc2cncnc21 1.03%, COc1ccccc1C1CN(Cc2cnn(C)c2C)Cc2ccccc2O1 (centres undefined) -9.25%, CSC(N)=NCCC[C@H](N)C(=O)O -11.5%, COc1ccc(-n2c(=O)c(-c3cccs3)nc3cnc(OC)nc32)cc1 -2.08%, Cc1cccc(CNc2ncnc3ccc(-c4cccc(C#N)c4)cc23)c1 -1.23%, C[C@H]1CCC(=O)N([C@H](CSc2ccc(Br)cc2)Cc2ccccc2)CC1 -11.7%, Cc1ccsc1C1Cc2c(C(=O)NCc3cccnc3)c(=O)cc(C)n2-c2ccccc2S1 (centres undefined) -13.2%, CN1CCN(c2cc(-c3ccccc3C(F)(F)F)ncn2)CC1 0.575%, C[C@H]1[C@H]2CC[C@H]3C4CC=C5C[C@@H](N(C)C)CC[C@]5(C)C4CC[C@]23CN1C (some centres undefined) 9.8%, O=C(c1ccccc1-n1cccn1)N1CCOc2c(cc(-c3ncc(C(F)(F)F)cc3Cl)cc2OCC2CCCO2)C1 (centres undefined) -13.4%, Cc1cnc(C)c(-c2cccc3c2OC(CNC(=O)CN2C(=O)c4ccccc4C2=O)C3)n1 (centres undefined) -9.97%, CCCCCOC(=O)Nc1nc(=O)n([C@@H]2O[C@H](C)[C@@H](O)[C@H]2O)cc1F -23.6%, Cc1nonc1CN(C)C(=O)C1CC12CCN(C(=O)/C=C/c1cccc(Cl)c1)CC2 (centres undefined) -2.13%, C[N+](C)(CCCCCC[N+](C)(C)C1c2ccccc2-c2ccccc21)C1c2ccccc2-c2ccccc21 -2.31%, O=C(Cn1cnnn1)N[C@@H]1C(=O)N2C(C(=O)O)=C(CSc3nncs3)CS[C@H]12 0.73% and 6.29%, COc1ccc(NC(=O)c2ccc(-c3ccc(-c4noc(C)n4)cc3C)cc2)cc1N1CCN(C)CC1 -35.6% and -60.6%, CCCCNc1ccc(C(=O)OCCN(C)C)cc1 -17.6% and 13.8% and -4.2%, CC(C)[N+]1(C)[C@@H]2CC[C@H]1CC(OC(=O)[C@@H](CO)c1ccccc1)C2 (some centres undefined) -18.3%, CN1CCOC(c2ccccc2)c2ccccc2C1 (centres undefined) -23.5% and -8.6%, COc1cc2nc(N3CCCC(O)C3)c(CNCc3ccccc3F)cc2c(OC)c1OC (centres undefined) -9.43%, CN(C)C(=O)OC1=C(c2ccccc2)Sc2ccccc2-n2cccc21 -1.71%, O=C(Oc1ccccc1)N1CCC2(CCCN(c3cccc(-c4ccccc4)c3)C2)CC1 7.82%, COc1ccc(C(=O)N2CCC3(CC2)CN(c2ncccn2)C3)cc1 -4.42%, Cc1cccc(C)c1OCC(N)C(C)C (centres undefined) -27.9%, CSc1ncccc1C(=O)NCC1Cc2cc(-c3cnccn3)cc(Cl)c2O1 (centres undefined) 5.39%, C[C@H](CSC(=O)c1ccccc1)C(=O)N1C[C@@H](Sc2ccccc2)C[C@H]1C(=O)O -5.99%, N#Cc1cccc(NC(=O)N2CCCC3(CCN(C(=O)c4cc(C(F)(F)F)cc(C(F)(F)F)c4)CC3)C2)c1 -15.8%, CC1CCC(C(C)C)[C@H](O)C1 (some centres undefined) -15.2%, COCC(=O)N1CCC2(CC1)CN(c1ccc(-c3ccccc3)cc1)C2 7.7%, COC(=O)c1ccccc1-c1cc(C)cc2c1OC(CNC(=O)c1ccn(C)n1)C2 (centres undefined) -16.5%, CN1CCC(=C2c3ccccc3CCc3sccc32)CC1 -29.5% and -28.6%, Cc1cnc(CNc2ncnc3ccc(-c4ccccc4Cl)cc23)cn1 4.55%, N=c1ccn2c(n1)OCC1C2O[C@@H](O)[C@H]1O (some centres undefined) -22.2%, O=C(OC1Cc2c(O)cc(O)cc2OC1c1cc(O)c(O)c(O)c1)c1cc(O)c(O)c(O)c1 (centres undefined) -4.39%, COc1cccc(CNC(=O)c2c(OC)cc(=O)n3c2CCN(C(=O)c2ccccc2Cl)CC3)c1 -4.53%, OCC(O)CS (centres undefined) -10.5%, CCc1ccc2c(O)c3c(cc2c1C(=O)OC)C(=O)c1c(O)ccc(O)c1C3=O -1.19%, CN1CC(O)C2=CC(=O)C(=O)C=C21 (centres undefined) -25.5%, COC(=O)[C@@H]1CCCN1Cc1ccc2c(c1)CN(Cc1ccccc1)CCO2 -9.31%, O=C(Cc1ccccc1)Nc1nc2ccc(Cl)cc2c2nc(-c3ccco3)nn12 -27.8% and -12.4%, CC(C)NC[C@H](O)COc1cccc2[nH]ccc12 -18% and 8.75% and -22.2%, COc1ccc2c(c1)OC(C)(C)C(c1ccccc1)C2c1ccc(OCCN2CCCC2)cc1 (centres undefined) 10.9%, CC(C)CN1CCCC2(CCN(C(=O)c3csnn3)CC2)C1 -2.35%, CC(=O)Nc1ccc(SCCN2CC[C@@H](O)CCC2=O)cc1 -14.4%, CC(C)NCC1CCc2cc(CO)c([N+](=O)[O-])cc2N1 (centres undefined) -17.1%, COCCn1c(=O)c(-c2cccc(C#N)c2)nc2cnc(N(C)C)nc21 -11.5%, Cc1cnc(C(=O)NCCc2ccc(S(=O)(=O)NC(=O)NC3CCCCC3)cc2)cn1 -5.76% and 4.74% and -16.6%, Cc1nc(C(C)NC2CCN(c3cccc(NC(=O)c4ccncc4)c3)CC2)cs1 (centres undefined) 1.39%, O=C1[C@H](CC[C@H](O)c2ccc(F)cc2)[C@@H](c2ccc(O)cc2)N1c1ccc(F)cc1 9.77%, COc1ccccc1CN1CCC(n2cc(C(=O)N3CCCCC3)nn2)CC1 -9.1%, CC(C)=CCC1=C(O)c2ccccc2C(=O)C1=O -10.2% and -29.1%, CC(C)c1cc(C(=O)N2CCOc3ccc(CN4CCC(Oc5cccnc5)CC4)cc3C2)n[nH]1 -9.24%, COc1ccc(OC)c(-c2ccnc(-n3ncc(C(=O)NC(C)(C)CO)c3C3CC3)n2)c1 -46.8%, CC(=O)OC1CCC2(C)C3CC(=O)C4(C)C(CC5OC6(CCC(C)CO6)C(C)C54)C3CC[C@H]2C1 (some centres undefined) -13.5%, COc1ccccc1OCC1CNC(=O)O1 (centres undefined) -8.73%, COC(=O)C1CCCCN1Cc1ccc2c(c1)CN(C(=O)c1csc(-c3cccs3)n1)CCO2 (centres undefined) -8.89%, O=S(=O)(O)c1cc(I)c(O)c2ncccc12 0.219%, c1cc2c3c(c1)c1c(n3CCNC2)CCCC1 6.46%, O=C(NC(c1cccnc1)C(F)(F)F)c1cnn(-c2nccc(-c3cccs3)n2)c1C1CC1 (centres undefined) 4.02%, Cc1cc2nccc(/C=C/c3ccc(N(C)C)cc3)c2cc1C -14.9%, COc1cccc(Nc2ncc3nc(-c4cc(F)cc(F)c4)c(=O)n(C[C@H]4CCCO4)c3n2)c1 3.07%, COc1ccc(Oc2ncc3nc(-c4cccs4)c(=O)n(Cc4cccc(OC)c4)c3n2)cc1 -3.58%, Cc1nc2cnc(Nc3ccccc3)nc2n(CCC#N)c1=O 9.65%, COc1cccc(-c2cc(NCc3ccc(OC)cc3OC)ncn2)c1 -2.55%, O=C(Nc1cccc(F)c1)N1CCCC2(CCN(C(=O)c3ccco3)CC2)C1 0.776%, COc1ccc2[nH]cc(CCNc3ncnc4ccc(-c5ccc6c(c5)OCO6)cc34)c2c1 -12.4%, COc1ccc(NC(=O)N2CC3(CCNCC3)C2)cc1 5.67%, CC(=O)Oc1ccc(C2(c3ccc(OC(C)=O)cc3)C(=O)Nc3ccccc32)cc1 -14.4% and -25.5%, COc1ccccc1N1CCN(CCCCNC(=O)c2ccc3ccccc3c2)CC1 9.76%, CCC1NC(=O)c2cc(S(N)(=O)=O)c(Cl)cc2N1 (centres undefined) -3.98%, COc1ccc(CN2CCC(=O)N(CCO)CC2)cc1OC 3.19%, Cc1ncc(COP(=O)(O)O)c(C=O)c1O -7.62%, CN(C)C(=O)c1ccc(-c2cncnc2NCCN2CCOCC2)cc1 -21.1%, Brc1cc(Br)c[n+](CCc2ccccc2)c1 -26%, COc1ccc(-c2ccc(C(=O)NCC3Cc4cccc(-c5nc(C)cnc5C)c4O3)o2)cc1 (centres undefined) -1.59%, Cc1cccc(CNc2ncnc3ccc(-c4cccnc4)cc23)c1 -19.6%, COc1cc2[nH]c(=O)[nH]c(=O)c2cc1OC -13.9%, CC(C)NC(=O)N1CCC2(CC1)CCN(C(=O)c1ccncc1)CC2 -5.96%, CC(O)(P(=O)(O)O)P(=O)(O)O -17.4%, CCCCCCCCCCCCCC(=O)OC(C)C -4.88%, Cn1cc(CNC2CCN(c3cccc(NC(=O)c4cccnc4)c3)CC2)cn1 -4.23%, COc1cc(=O)n2c(c1C(=O)N(C)Cc1nccs1)CCN(Cc1c(F)ccc(F)c1F)CC2 -10.3%, O=C(O[C@H]1[C@H](Cc2ccccc2)NS(=O)(=O)[C@H]2C[C@@H]3C=C[C@]12O3)c1ccc([N+](=O)[O-])cc1 -23.6%, CO/N=C(\C(=O)N[C@@H]1C(=O)N2C(C(=O)O)=C(CSc3nc(=O)c(O)nn3C)CSC12)c1csc(N)n1 (some centres undefined) -0.0986%

— PubChem BioAssay AID1645887 (National Center for Advancing Translational Sciences (NCATS), 2021)
